Measurements: the RNAGym collection of RNA variant scans (doi:10.1093/nar/gkz1192)
Read counts are not given, so values of variants with three or more changes are uncertain.

B1: CPEB3 Ribozyme (parent)
chain: UAACAGGGGGCCACAGCAGAAGCGUUCACGUCGCAGCCCCUGUCAGAUUCUGGUGAAUCUGCGAAUUCUGCUGUAUAUCUC

Variants of: B1
Assay: self-cleavage, relative activity (ratio to wild type); higher = more cleavage; in vitro, sequencing
Outline: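 Relative activity was defined as the cleaved/total read fraction for a variant divided by the same fraction for the unmutated ribozyme. CPEB3 self-cleaving ribozyme libraries were made by rounds of error-prone PCR, barcoded, and transcribed in vitro with T7 RNA polymerase for 5 hours at 37°C, and cleavage ran through transcription plus a 15 min DNase I step before EDTA. Illumina sequencing of template-switched reverse transcripts gave the reads, and DNA sequencing mapped the barcodes. Averages come from three batches, using variants with at least 5 reads.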
With A20G U26C U49C U60C G63A A65G the self-cleavage was 0.04.
With A20G U26C U51C A64U the self-cleavage was 0.08.
In the case of A20G U26C U54G U78C, the self-cleavage is reported as 0.14.
A20G U26C U60A showed a self-cleavage of 0.31.
In the case of A20G U26C U67A, the self-cleavage is reported as 0.34.
For A20G U26C U69C U74A, the self-cleavage was 0.24.
A20G U26C U72A showed a self-cleavage of 0.27.
A20G U26C U72G showed a self-cleavage of 0.21.
Work on A20G U31A A35U U58C yielded a self-cleavage of 0.29.
In the case of A20G U31A A45G, the self-cleavage is reported as 0.46.
For A20G U31A A45G U51C A57G U60C U74A, the self-cleavage was 0.7.
Work on A20G U31A C32U U48C A57G yielded a self-cleavage of 0.19.
Variant A20G U31A C59U has a self-cleavage of 0.46.
Variant A20G U31A C71U has a self-cleavage of 0.17.
A20G U31A C71U U78C gave a self-cleavage of 0.1.
A20G U31A G53U U76C U80C showed a self-cleavage of 0.53.
A20G U31A U49C U51G G63A U72C U80A gave a self-cleavage of 0.21.
A20G U31A U54C gave a self-cleavage of 0.29.
A20G U31A U60A gave a self-cleavage of 0.09.
In the case of A20G U31A U60C U72C, the self-cleavage is reported as 0.36.
In the case of A20G U31A U66C U72C, the self-cleavage is reported as 0.09.
Work on A20G U31A U67C U78C yielded a self-cleavage of 0.4.
A20G U31A U72C U80C showed a self-cleavage of 0.39.
With A20G U31A U78C the self-cleavage was 0.38.
A20G U31C A35G G42A A56U gave a self-cleavage of 0.08.
Variant A20G U31C A35G G63C has a self-cleavage of 0.87.
With A20G U31C A35G U58C A64G the self-cleavage was 0.22.
Variant A20G U31C A35U has a self-cleavage of 0.2.
Work on A20G U31C A45G G52A A56U A75G A77G yielded a self-cleavage of 0.05.
A20G U31C A45G U54A showed a self-cleavage of 0.42.
Work on A20G U31C A47G G53U yielded a self-cleavage of 0.53.
A20G U31C A57G U67A showed a self-cleavage of 0.29.
A20G U31C C37A C40U A45G showed a self-cleavage of 0.06.
A20G U31C C44G showed a self-cleavage of 0.21.
A20G U31C C62G A65G showed a self-cleavage of 0.16.
Work on A20G U31C G33A U48A yielded a self-cleavage of 0.18.
Variant A20G U31C G36A G42A A45U has a self-cleavage of 0.17.
With A20G U31C G46U A57G U69A the self-cleavage was 0.27.
Work on A20G U31C U41A A45U U54G yielded a self-cleavage of 0.07.
In the case of A20G U31C U41A U60C, the self-cleavage is reported as 0.37.
A20G U31C U41C U43A U51C U60A U80C showed a self-cleavage of 0.12.
A20G U31C U43C U78C showed a self-cleavage of 0.37.
Variant A20G U31C U51C A64G has a self-cleavage of 0.15.
With A20G U31C U54A the self-cleavage was 0.26.
Work on A20G U31C U54A A56U G61C U69A U72C yielded a self-cleavage of 0.09.
For A20G U31C U54A U80A, the self-cleavage was 0.51.
With A20G U31C U54C A64G U66C the self-cleavage was 0.14.
A20G U31C U54C U58A gave a self-cleavage of 0.1.
In the case of A20G U31C U54C U67C, the self-cleavage is reported as 0.51.
With A20G U31C U54C U78A the self-cleavage was 0.57.
For A20G U31C U54G U60A, the self-cleavage was 0.14.
Work on A20G U31C U58G yielded a self-cleavage of 0.07.
Work on A20G U31C U67A yielded a self-cleavage of 0.23.
A20G U31C U72C U78C gave a self-cleavage of 0.65.
A20G U31C U80A showed a self-cleavage of 0.83.
A20G U31G A56G A64C gave a self-cleavage of 0.07.
In the case of A20G U31G U43C A45U, the self-cleavage is reported as 0.19.
In the case of A20G U31G U48C, the self-cleavage is reported as 0.04.
Work on A20G U41A A56G A77U yielded a self-cleavage of 0.11.
In the case of A20G U41A A56G U66C G73A A77G, the self-cleavage is reported as 0.03.
For A20G U41A A56U U78C, the self-cleavage was 0.09.
With A20G U41A A57G the self-cleavage was 0.1.
Work on A20G U41A A64U yielded a self-cleavage of 0.4.
For A20G U41A A64U U80C, the self-cleavage was 0.1.
A20G U41A A65G U78A showed a self-cleavage of 0.07.
Variant A20G U41A A65U has a self-cleavage of 0.15.
For A20G U41A G63A, the self-cleavage was 0.21.
With A20G U41A U48A U76A the self-cleavage was 0.05.
A20G U41A U49A showed a self-cleavage of 0.19.
A20G U41A U51A gave a self-cleavage of 0.65.
A20G U41A U51C A57G C62A showed a self-cleavage of 0.17.
With A20G U41A U54A the self-cleavage was 0.24.
A20G U41A U54A U66C gave a self-cleavage of 0.13.
Variant A20G U41A U54C C68U has a self-cleavage of 0.08.
For A20G U41A U60A U76A, the self-cleavage was 0.
For A20G U41A U66A, the self-cleavage was 0.19.
With A20G U41A U67C U78C the self-cleavage was 0.14.
A20G U41A U72A gave a self-cleavage of 0.25.
Work on A20G U41C A45G A65G U80C yielded a self-cleavage of 0.22.
In the case of A20G U41C A56U A57G, the self-cleavage is reported as 0.29.
For A20G U41C A64G C68G U74A, the self-cleavage was 0.1.
In the case of A20G U41C C68G U69A U78C, the self-cleavage is reported as 0.22.
For A20G U41C C81A, the self-cleavage was 1.09.
